From paper PMC4336329 (PLoS ONE, 2015)
About 14,000 (4.5%) of roughly 310,000 compounds showed an effect of 50% or more. The effect is printed as a negative number. The list shows a part of the results.

The compounds below were run against human ether-à-go-go-related gene (hERG) potassium channel (human, UniProt Q12809) (assay: primary screen, population patch clamp on CHO cells stably expressing hERG).
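Further: peak tail current of the secondary pulse compared with the same well before compound.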

Chain of human ether-à-go-go-related gene (hERG) potassium channel (Q12809 whole entry, looked up): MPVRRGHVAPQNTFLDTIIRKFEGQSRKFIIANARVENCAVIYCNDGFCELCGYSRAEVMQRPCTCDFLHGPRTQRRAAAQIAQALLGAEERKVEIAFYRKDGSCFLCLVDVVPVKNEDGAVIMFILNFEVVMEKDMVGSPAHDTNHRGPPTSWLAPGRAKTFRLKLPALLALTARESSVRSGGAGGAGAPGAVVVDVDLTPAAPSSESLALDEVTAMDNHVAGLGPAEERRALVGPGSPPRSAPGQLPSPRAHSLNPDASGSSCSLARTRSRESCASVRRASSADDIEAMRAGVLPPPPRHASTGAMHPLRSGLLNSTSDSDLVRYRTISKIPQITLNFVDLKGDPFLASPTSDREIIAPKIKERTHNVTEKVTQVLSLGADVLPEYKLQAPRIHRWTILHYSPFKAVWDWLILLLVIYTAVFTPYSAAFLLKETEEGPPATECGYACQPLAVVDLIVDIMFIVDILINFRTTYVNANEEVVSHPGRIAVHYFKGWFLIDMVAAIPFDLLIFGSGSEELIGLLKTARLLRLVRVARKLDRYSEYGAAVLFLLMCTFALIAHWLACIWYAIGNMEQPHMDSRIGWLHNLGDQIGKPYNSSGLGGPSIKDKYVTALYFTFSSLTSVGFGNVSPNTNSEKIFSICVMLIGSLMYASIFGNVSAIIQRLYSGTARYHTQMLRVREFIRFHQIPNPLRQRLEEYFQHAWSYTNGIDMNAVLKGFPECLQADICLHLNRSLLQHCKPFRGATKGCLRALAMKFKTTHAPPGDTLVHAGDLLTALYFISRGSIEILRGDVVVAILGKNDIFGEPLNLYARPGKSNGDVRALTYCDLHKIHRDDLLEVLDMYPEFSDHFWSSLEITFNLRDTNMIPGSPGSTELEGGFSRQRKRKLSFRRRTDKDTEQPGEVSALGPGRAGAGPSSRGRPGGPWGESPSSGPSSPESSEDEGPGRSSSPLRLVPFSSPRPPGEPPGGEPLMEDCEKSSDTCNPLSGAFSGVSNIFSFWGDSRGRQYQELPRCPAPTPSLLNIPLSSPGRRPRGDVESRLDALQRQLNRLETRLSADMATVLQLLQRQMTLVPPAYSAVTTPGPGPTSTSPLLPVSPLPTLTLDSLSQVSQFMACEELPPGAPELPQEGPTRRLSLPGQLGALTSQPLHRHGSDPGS

Row | SMILES | hERG current change (%, negative = inhibition) at 10uM [%]
1 | Cn1c(NCc2ccco2)nc2c1c(=O)n(Cc1ccc(Br)cc1)c(=O)n2C | -6.48
2 | COC(=O)c1[nH]c2ccc(F)cc2c1NC(=O)C1=COCCO1 | -15.9
3 | CC(=O)CC(=O)Nc1ccc(Nc2ccccc2)cc1 | -2.87
4 | O=C(Nc1ccc(NC(=O)C2CC2)nc1)c1cccs1 | 14
5 | Cn1cc(C(=O)c2ccc(Cl)cc2Cl)cc1C(=O)N/N=C(\N)COc1ccccc1 | -23.9
6 | O=C1Cn2c(nc3ccccc32)N1c1cccc(C(F)(F)F)c1 | -20.1
7 | O=C(Nc1cccc(-c2cnc3ccccc3n2)c1)c1ccc(Cl)cc1 | 1.04
8 | Cc1ccc(C(=O)CN(C(=O)c2ccc(Cl)c(Cl)c2)N2C(=O)C3CCCCC3C2=O)cc1C (centres unmarked) | -0.798
9 | CCOc1ccccc1N(CC(=O)N/N=C/c1cc(Br)ccc1OC)S(C)(=O)=O | 15.3
10 | Cc1ccccc1C(=O)Nc1cccc(NC(=O)c2ccc(F)cc2)c1 | 1.98
11 | Oc1oc(-c2ccco2)nc1C=Nc1ccccc1 | -12.3
12 | COc1cc(-c2nc3cnccn3c2Nc2ccc3c(c2)OCCO3)ccc1O | -4.62
13 | O=C(Nc1ccc2oc(-c3ccc4ccccc4c3)nc2c1)c1cccs1 | 4.14
14 | CN(Cc1ccccc1)S(=O)(=O)c1ccc(Cl)c(C(=O)OCC(N)=O)c1 | -30
15 | O=C1c2[nH]nc(-c3ccccc3O)c2C(c2ccccc2F)N1Cc1ccco1 (centres unmarked) | 10.9
16 | CC(=O)c1cc2c(cc1NC(=O)CN1CCN(c3cccc(C(F)(F)F)c3)CC1)OCO2.Cl | 5.1
17 | O=C(Cn1c(=O)oc2ccccc21)Nc1ccccc1N1CCOCC1 | 29.1
18 | CC1CCN(c2nc(/C=C/c3ccccc3)nc3ccccc23)CC1 | -0.307
19 | CNC(=S)N/N=C1\C2CN3CCN(C2)CC1(c1ccccc1)C3 | -2.75
20 | N#C/C(=C\c1ccc2c(c1)OCO2)C(N)=S | 20.4
21 | Cc1ccc(OCc2nc(-c3cccs3)no2)c([N+](=O)[O-])c1 | 2.24
22 | COc1ccc(N(CC(=O)N2c3ccccc3CC2C)S(=O)(=O)c2c(C)nn(C)c2C)cc1 (centres unmarked) | -25.9
23 | CC(C)(C)C(=O)NC1CC2CCCC(C1)N2C(=O)Nc1cccc(Cl)c1 (centres unmarked) | 13.6
